Whole data set: some 3,600 compounds, median “viability index relative to DMSO control” near 0.81, cut for the lowest 2% near 0.13. The list shows a part of the results.
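Further: 384-well serum-free SaLSSA: MitoTracker Red CMXRos staining with saponin lysis, high-content imaging, treated-well particle count divided by plate-mean count of DMSO wells.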

This test relates to Plasmodium falciparum NF54 stage V gametocytes. Nature of the test: viability index relative to DMSO control (fraction); higher = less gametocyte killing. To be noted: 1.25 µM, incubation time: 72 h.
The compound `CC[n+]1c(C=C2C=Cc3cc(C)ccc3N2C)ccc2cc(C)ccc21` returned a viability index of 0.555.
In the case of `Cc1cccc(Nc2c3c(c(C#N)c4nc5ccccc5n24)CCC3)c1` it was 0.71.
In the case of `O=C(Nc1ccc(-c2nc3ccccc3[nH]2)cc1)c1ccc(Cl)c(Cl)c1` it was 1.03; in that of `Cc1ccc(S(=O)(=O)N=C2C=C(Sc3nc4ccccc4[nH]3)C(=O)c3ccccc32)cc1`, 0.247.
Consider `COc1cccc(OC)c1C(=O)Nn1c(-c2cccc(C)c2)nc2ccccc2c1=O`, for which the viability index turned out to be 0.762.
In the case of `CCOc1ccc(C(=O)C(C)[n+]2cc(-c3ccc(Cl)cc3)n3c2CCC3)cc1` (configuration not stated), the viability index is 0.812.
In the case of `Cc1ccc(C=Cc2ccc(N(C)C)cc2)[n+](C)c1` it was 0.77; in that of `COCCn1c(=S)[nH]c2cc(C(=O)NCCc3ccc(S(N)(=O)=O)cc3)ccc2c1=O`, 0.936.
`Cc1cccc(OCC(O)CN2CCN(CC(=O)c3ccc(Br)cc3)CC2)c1` (configuration not stated) registered a viability index of 0.739.
The figure for `C=CCOc1ccc(C2C(C(=O)OCC)=C(C)N=c3sc(=Cc4ccccc4O)c(=O)n32)cc1OCC` (configuration not stated) is 0.766; for `C[N+]1(CCOC(=O)CCC(=O)OCC[N+]2(C)CCCCCC2)CCCCCC1` it is 0.996; for `Cc1cc(C)cc(NC(=S)NCCO)c1` it is 0.78.
`CCOC(=O)C1=C(C)NC2=C(C(=O)C(C(=O)OCC)C(c3ccccc3OC)C2)C1c1sccc1C` (configuration not stated) registered a viability index of 0.544.
`COc1cccc(CN2CCC(O)(c3ccc4oc(C(=O)Nc5ccc(Cl)cc5)cc4c3)CC2)c1` gave a viability index of 1.07.
In the case of `CCOC(=O)C1=C(C)NC2=C(C(=O)CC(c3ccc(OC)c(OC)c3)C2)C1c1ccccc1OC` (configuration not stated) it was 0.68.
`CCOC(=O)c1cccc(NC(=O)CCn2c(-c3ccc(F)cc3)cc(C(=O)OCC)c2C)c1` returned a viability index of 0.888.
Regarding `Clc1ccc(-c2c[n+](Cc3ccccc3Cl)c3n2CCC3)cc1Cl`, the viability index was 1.11.
As to `CCCCN(C)Cc1cc(-c2cccc(OC)n2)ccc1O`, the viability index amounted to 0.625.
The figure for `CN(C)c1ccc(C=C2SC(=N)N(c3nccs3)C2=O)cc1` is 0.775; for `CCCCCc1ccc(OCCCC[n+]2cccc(C)c2C)c(CCCCC)c1` it is 0.521.
`CC1(C)CC(=O)c2cc(-c3ccc(Br)cc3)n(-c3ccccc3F)c2C1` displayed a viability index of 0.634.
On to `O=C(Nc1ccc(Cl)c(Cl)c1)Nc1cc(C(=O)NCCCN2CCCCCC2)ccc1Cl`, for which the viability index is 0.867.
In the case of `COc1ccc(C2=C(c3ccc(OC)cc3)C3(c4ccccc4)C(=O)C2(c2ccccc2)C2C(=O)N(c4ccc(F)cc4)C(=O)C23)cc1` (configuration not stated) it was 0.864.
The compound `Cc1cc(C)c(S(=O)(=O)NCc2ccc(Cl)cc2)c(C)c1` came in with a viability index of 0.98.
Consider `O=[N+]([O-])c1ccc2nc(Nc3ccccc3)c(Nc3ccccc3)nc2c1`, for which the viability index amounted to 0.481.
In the case of `O=C(Nc1ccon1)c1cc(-c2cccnc2)nc2ccc(Cl)cc12` it was 0.82; in that of `COc1ccc(S(=O)(=O)NCC2CCC(C(=O)NCC(OC)OC)CC2)cc1` (configuration not stated), 0.983; in that of `Nc1c(C(=O)Nc2ccc(F)cc2)sc2nc3c(c(-c4cccs4)c12)CCCCC3`, 1.13.
The figure for `CCCCN(C)CCCNC(=O)c1ccc(Cl)c(NC(=O)Nc2ccc(Cl)c(Cl)c2)c1` is 0.531.
`CCC(C)Nc1nc(NC(C)CC)nc(N2CCCCCC2)n1` (configuration not stated) registered a viability index of 0.864.
In the case of `COc1cc(Br)c(C2CC(=O)Nc3ccc4ccccc4c32)cc1OC` (configuration not stated) it was 0.857.
`COC(=O)C1CCCCN1S(=O)(=O)c1ccc(C)cc1` (configuration not stated): the viability index came to 0.952.
On to `C=CCN1C(=O)C(=C2Sc3ccc(OC)cc3N2C)SC1=Nc1ccccc1-c1ccccc1`, for which the viability index turned out to be 0.448.
In the case of `CCCCN1C(=O)N(c2ccccc2C)C(C)(O)CC1(C)C` (configuration not stated) it was 0.865.
Take `CCOC(=O)c1ccc(NC(=O)CSc2nc(NCc3ccccc3)c3ccccc3n2)cc1`: the viability index worked out at 0.929.
In turn, `Cc1cc2c(cc1C)NC(c1ccccc1F)C1=C(CC(C)(C)CC1=O)N2` (configuration not stated) came in with a viability index of 0.695.
In the case of `CC(=O)O[C@H]1C(=O)[C@@]2(C)C([C@H](OC(=O)c3ccccc3)[C@]3(O)C[C@H](OC(=O)[C@@H](O)[C@@H](NC(=O)c4ccccc4)c4ccccc4)C(C)=C1C3(C)C)[C@]1(OC(C)=O)CO[C@@H]1C[C@@H]2O` (some centres not stated) it was 0.375.
Turning to `COC(=O)CC(NS(=O)(=O)c1ccc(OC)cc1)c1ccc2c(c1)OCO2` (configuration not stated), the viability index turned out to be 1.04.
In turn, `COC(=O)c1c(NC(=O)c2cc3ccccc3oc2=O)sc2c1CCC(C)C2` (configuration not stated) yielded a viability index of 1.13.
In the case of `C[n+]1c2ccccc2nc2ccc(NC3CCCCC3N)cc21` (configuration not stated) it was 0.541; in that of `COC(CNC(=O)c1c[nH]c2ccc(S(=O)(=O)N3CCN(C)CC3)cc2c1=O)OC`, 0.979; in that of `CCCCCCCCNC(=O)C1CC1c1ccccc1` (configuration not stated), 0.785.
For `O=C(C(Cc1ccc(O)cc1)c1ccccc1)N1CCC(n2c(Cc3ccc(F)cc3)nc3cccnc32)CC1` (configuration not stated), the viability index was 1.
The figure for `CCOC(=O)c1sc(NC(=O)CSc2nnc(CNC(=O)COc3ccc(Cl)cc3)n2C)c(C(=O)OCC)c1C` is 0.938; for `O=C(c1ccc2ccccc2c1)N1CCc2ccccc21` it is 0.926.
The figure for `CCOC(=O)c1oc2cc(O)c(CC)cc2c(=O)c1-c1ccc2c(c1)OCO2` is 1.09; for `CN1CCN(CCCNc2ccnc3cc4ccccc4cc23)CC1` it is 0.533.
In the case of `CC(=O)c1c(C)n(CC(=O)Nc2cccc(C)c2)c2ccccc12` it was 1.01; in that of `CN(C)c1ccc(C=CC=Cc2cc[n+](C)cc2)cc1`, 0.971.
In turn, `N#CC(=Cc1ccc(Sc2ccccc2)o1)c1nc2ccccc2[nH]1` gave a viability index of 0.776.
The compound `O=C(O)c1ccc(S(=O)(=O)c2ccc3c(c2)C(=O)N(c2ccc(Sc4ccc([N+](=O)[O-])cc4)cc2)C3=O)cc1` registered a viability index of 0.887.
The figure for `O=C(CCl)Nc1ccc(N2CCCCC2)cc1` is 0.692; for `O=C(Nc1cccc(-c2nc3ccccc3[nH]2)c1)c1cc(=O)c2ccccc2o1` it is 0.397; for `CC(=O)OCN1C(=O)N(COC(C)=O)C2C1N(COC(C)=O)C(=O)N2COC(C)=O` (configuration not stated) it is 1.03.
The figure for `O=C(NCc1ccccc1)C(c1ccc(F)cc1)N(Cc1ccco1)C(=O)c1cnccn1` (configuration not stated) is 0.72; for `CC1=CC(=Cc2sc3ccccc3[n+]2C)C=C(C)O1` it is 0.914; for `O=C1NC(=O)C(Cc2ccc(S(=O)(=O)N3CCN(c4ccccc4)CC3)cc2)S1` (configuration not stated) it is 1.01.
In the case of `O=C1Nc2ccccc2C12Nc1ccccc1-c1nc3ccccc3n12` (configuration not stated) it was 0.861; in that of `CCOC(=O)C1=C(C)NC2=C(C(=O)CC(c3ccc(OC)c(OC)c3)C2)C1c1ccc(Cl)cc1Cl` (configuration not stated), 0.328.
As for `Fc1ccc(-c2c[n+](-c3ccccc3)c3n2CCS3)cc1`, the viability index turned out to be 0.967.
Compound `CN(Cc1ccccc1)CC(O)COc1ccc(CNCCCN2CCCC2)cc1` (configuration not stated) had a viability index of 0.827.
The figure for `COc1ccc(-n2nc3c(c2NC(=O)C=Cc2cc(OC)c(OC)c(OC)c2)CSC3)cc1` is 1.11; for `NC1=NC(c2ccccc2)N(c2ccccc2)C(N)=N1` (configuration not stated) it is 1.12; for `COC(=O)C1=C(C)NC2=C(C(=O)CC(c3ccc(Cl)cc3)C2)C1c1ccc(F)cc1` (configuration not stated) it is 0.992.
The figure for `COc1cc2c(-c3cc(Br)ccc3O)nc3c(c(Cc4ccccc4)nn3-c3ccccc3)c2cc1OC` is 0.595; for `CCOC(=O)c1ccc(NCc2c(C)[nH]c(C(=O)OCC)c2C)cc1` it is 0.767.
`Cc1ccccc1OCc1nnc(SCC(=O)Nc2ccc([N+](=O)[O-])cc2)n1C` displayed a viability index of 1.34.
The figure for `C#CC(C)(C)NC(=O)c1ccc(-c2ccc(CC)cc2)cc1` is 0.548; for `Cc1ccc(N2C(=O)CC(NCCCN3CCOCC3)C2=O)cc1` (configuration not stated) it is 1.07; for `CCNc1nc(NC(C)C)nc(NC(N)NOC)n1` (configuration not stated) it is 0.817.
Consider `CCOc1ccccc1NC(=O)C1C(c2ccccc2)=C1c1ccccc1`, for which the viability index was 1.28.
`Cc1c(NC(=O)C2c3ccccc3C(=O)N3CCc4ccccc4C23)cccc1[N+](=O)[O-]` (configuration not stated) returned a viability index of 0.892.
In turn, `COc1cc2ccccc2cc1C(=O)NCCOC12CC3CC(CC(C3)C1)C2` showed a viability index of 0.755.
In the case of `C=CCSc1ncc(-c2ccc(Cl)cc2)n1C` it was 0.793; in that of `CCOc1ccc(C(=O)Cn2ccc(=NCc3ccccc3)cc2)cc1[N+](=O)[O-]`, 0.748.
The figure for `CN1CCN(c2nc(NN=Cc3cc(I)ccc3O)nc(Nc3ccc([N+](=O)[O-])cc3)n2)CC1` is 0.668.
In the case of `CCOC(=O)C(=O)N1c2ccc(C)cc2-c2c(ssc2=S)C1(C)C` it was 0.808.
As for `O=C1CC(C(=O)N2CCC(c3nc(-c4cccnc4)ncc3-c3ccccc3)CC2)c2ccccc21` (configuration not stated), the viability index turned out to be 0.99.
The figure for `c1ccc(CSc2nnc3c4ccccc4nc-3[nH]2)cc1` is 0.859; for `CC[n+]1c(C=CN(C)c2ccccc2)oc(-c2ccccc2)c1-c1ccccc1` it is 0.226; for `COc1ccc(C2C(C(C)=O)=C(O)C(=O)N2CCCn2ccnc2)c(OC)c1` (configuration not stated) it is 0.728.
In the case of `COc1ccccc1N1CCN(Cc2cc(C(C)C)c(C)cc2O)CC1` it was 0.528.
The figure for `Cc1ccc(S(=O)(=O)Nc2nc3n(n2)C(c2ccccc2)C=C(c2ccccc2)N3)cc1` (configuration not stated) is 0.799; for `Clc1ccc(C[n+]2cc(-c3ccccc3)n3c2CCC3)cc1Cl` it is 0.834.
`CN1CCc2c(sc3nc(SCc4ccc(Cl)cc4)n(-c4cccc(Cl)c4)c(=O)c23)C1` showed a viability index of 1.15.
Take `CCOc1ccc(Nc2cc(C)nc3c(C)cc(C)cc23)cc1`: the viability index was 0.853.
The figure for `CCCCOc1ccc(N(C(C)=O)C2=C(N3CCOCC3)C(=O)c3ccccc3C2=O)cc1` is 0.181.

For the origin of these results see the supplement of paper PMC4723716.
